# Assay results: the supplement of paper PMC8728848
# The other results are listed elsewhere or left out.
# B1: Pwp4 (Candida glabrata) (protein)
# chain: MGSSHHHHHHSSGLVPRGSHMASVGNPITVSNVCSFPKNWHRTAGFRALTARLGIGIQSDSYKELLNYPGTFQLTTQQSSTTKPNFQISGLVGNIYGLTIVPSYLLVELTGYFVPPVSGEYTFSLEGSDDAAIIFIANPSTFKCGHVEDWPTAYDNDVTVTESIHATRTIYMIEGVAYPIRIAYYNGLSLGKLQASFTDPEGVKRVDWNGYIWRYDSCDTCSYV
# Tests used:
# Test in all cases: glycan array binding signal (z-score within array); higher = stronger binding
# Conditions in all cases: glycan notation: IUPAC condensed, linker removed
# [1] = target: Fuc(a1-3)GlcNAc
# Method in brief: (§1)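 The Consortium for Functional Glycomics database supplied 3228 glycan arrays, of which those lacking an available protein sequence were dropped. The binding signal, a within-array Z-score, was averaged across arrays of the same protein sequence and across linkers. Negative scores can be read as non-binding.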
# [2] = target: Fuc(a1-3)[Gal(b1-4)]Glc6S
# Method in brief: as §1
# [3] = target: Fuc(a1-3)[Gal(b1-4)]GlcNAc
# Method in brief: as §1
# [4] = target: Fuc(a1-3)[Gal(b1-4)]GlcNAc(b1-2)Man
# Method in brief: as §1
# [5] = target: Fuc(a1-3)[Gal(b1-4)]GlcNAc(b1-2)Man(a1-3)[Fuc(a1-3)[Gal(b1-4)]GlcNAc(b1-2)Man(a1-6)]Man(b1-4)GlcNAc(b1-4)GlcNAc
# Method in brief: as §1
# [6] = target: Fuc(a1-3)[Gal(b1-4)]GlcNAc(b1-2)Man(a1-3)[Fuc(a1-3)[Gal(b1-4)]GlcNAc(b1-2)Man(a1-6)]Man(b1-4)GlcNAc(b1-4)[Fuc(a1-6)]GlcNAc
# Method in brief: as §1
# [7] = target: Fuc(a1-3)[Gal(b1-4)]GlcNAc(b1-3)Gal(b1-3)[Fuc(a1-4)]GlcNAc
# Method in brief: as §1
# [8] = target: Fuc(a1-3)[Gal(b1-4)]GlcNAc(b1-3)Gal(b1-4)[Fuc(a1-3)]GlcNAc
# Method in brief: as §1
# [9] = target: Fuc(a1-3)[Gal(b1-4)]GlcNAc(b1-3)Gal(b1-4)[Fuc(a1-3)]GlcNAc(b1-3)Gal(b1-4)[Fuc(a1-3)]GlcNAc
# Method in brief: as §1
# [10] = target: Fuc(a1-3)[Gal(b1-4)]GlcNAc(b1-3)GalNAc
# Method in brief: as §1
# [11] = target: Fuc(a1-3)[Gal(b1-4)]GlcNAc(b1-6)GalNAc
# Method in brief: as §1
# [12] = target: Fuc(a1-3)[Gal(b1-4)]GlcNAc(b1-6)[Gal(b1-3)GlcNAc(b1-3)]Gal(b1-4)Glc
# Method in brief: as §1
# [13] = target: Fuc(a1-3)[Gal(b1-4)]GlcNAc6S
# Method in brief: as §1
# [14] = target: Fuc(a1-3)[Gal3S(b1-4)]Glc
# Method in brief: as §1
# [15] = target: Fuc(a1-3)[Gal3S(b1-4)]GlcNAc
# Method in brief: as §1
# [16] = target: Fuc(a1-3)[Gal3S(b1-4)]GlcNAc6S
# Method in brief: as §1
# [17] = target: Fuc(a1-3)[GalNAc(b1-4)]GlcNAc
# Method in brief: as §1
# [18] = target: Fuc(a1-3)[GalNAc(b1-4)]GlcNAc6S
# Method in brief: as §1
# [19] = target: Fuc(a1-4)GlcNAc
# Method in brief: as §1
# [20] = target: Fuc(b1-3)GlcNAc
# Method in brief: as §1
# [21] = target: Gal(a1-2)Gal
# Method in brief: as §1
# [22] = target: Gal(a1-3)Gal
# Method in brief: as §1
# [23] = target: Gal(a1-3)Gal(b1-3)GlcNAc
# Method in brief: as §1
# [24] = target: Gal(a1-3)Gal(b1-3)GlcNAc(b1-2)Man
# Method in brief: as §1
# [25] = target: Gal(a1-3)Gal(b1-3)GlcNAc(b1-2)Man(a1-3)[Gal(a1-3)Gal(b1-3)GlcNAc(b1-2)Man(a1-6)]Man(b1-4)GlcNAc(b1-4)GlcNAc
# Method in brief: as §1
# [26] = target: Gal(a1-3)Gal(b1-3)GlcNAc(b1-3)GalNAc
# Method in brief: as §1
# [27] = target: Gal(a1-3)Gal(b1-3)GlcNAc(b1-6)GalNAc
# Method in brief: as §1
# [28] = target: Gal(a1-3)Gal(b1-3)[Fuc(a1-4)]GlcNAc(b1-2)Man(a1-3)[Gal(a1-3)Gal(b1-3)[Fuc(a1-4)]GlcNAc(b1-2)Man(a1-6)]Man(b1-4)GlcNAc(b1-4)GlcNAc
# Method in brief: as §1
# [29] = target: Gal(a1-3)Gal(b1-4)Glc
# Method in brief: as §1
# [30] = target: Gal(a1-3)Gal(b1-4)GlcNAc
# Method in brief: as §1
# [31] = target: Gal(a1-3)Gal(b1-4)GlcNAc(b1-2)Man
# Method in brief: as §1
# [32] = target: Gal(a1-3)Gal(b1-4)GlcNAc(b1-2)Man(a1-3)[Gal(a1-3)Gal(b1-4)GlcNAc(b1-2)Man(a1-6)]Man(b1-4)GlcNAc(b1-4)GlcNAc
# Method in brief: as §1
# [33] = target: Gal(a1-3)Gal(b1-4)GlcNAc(b1-3)GalNAc
# Method in brief: as §1
# [34] = target: Gal(a1-3)Gal(b1-4)GlcNAc(b1-6)GalNAc
# Method in brief: as §1
# [35] = target: Gal(a1-3)Gal(b1-4)[Fuc(a1-3)]GlcNAc
# Method in brief: as §1
# [36] = target: Gal(a1-3)Gal(b1-4)[Fuc(a1-3)]GlcNAc(b1-2)Man(a1-3)[Gal(a1-3)Gal(b1-4)[Fuc(a1-3)]GlcNAc(b1-2)Man(a1-6)]Man(b1-4)GlcNAc(b1-4)GlcNAc
# Method in brief: as §1
# [37] = target: Gal(a1-3)GalNAc
# Method in brief: as §1
# [38] = target: Gal(a1-3)[Gal(a1-4)]Gal(b1-4)GlcNAc
# Method in brief: as §1
# [39] = target: Gal(a1-4)Gal(b1-3)GlcNAc(b1-2)Man(a1-3)[Gal(a1-4)Gal(b1-3)GlcNAc(b1-2)Man(a1-6)]Man(b1-4)GlcNAc(b1-4)GlcNAc
# Method in brief: as §1
# [40] = target: Gal(a1-4)Gal(b1-4)Glc
# Method in brief: as §1
# [41] = target: Gal(a1-4)Gal(b1-4)GlcNAc
# Method in brief: as §1
# [42] = target: Gal(a1-4)Gal(b1-4)GlcNAc(b1-2)Man(a1-3)[Gal(a1-4)Gal(b1-4)GlcNAc(b1-2)Man(a1-6)]Man(b1-4)GlcNAc(b1-4)GlcNAc
# Method in brief: as §1
# [43] = target: Gal(a1-4)Gal(b1-4)GlcNAc(b1-3)Gal(b1-4)Glc
# Method in brief: as §1
# [44] = target: Gal(a1-4)GlcNAc
# Method in brief: as §1
# [45] = target: Gal(a1-6)Glc
# Method in brief: as §1
binder,measurement,setting,value
B1,glycan array binding signal (z-score),[1],-0.522
same,glycan array binding signal (z-score),[2],0.417
same,glycan array binding signal (z-score),[3],0.547
same,glycan array binding signal (z-score),[4],-0.175
same,glycan array binding signal (z-score),[5],-0.556
same,glycan array binding signal (z-score),[6],-0.406
same,glycan array binding signal (z-score),[7],-0.319
same,glycan array binding signal (z-score),[8],-0.412
same,glycan array binding signal (z-score),[9],-0.361
same,glycan array binding signal (z-score),[10],1.8
same,glycan array binding signal (z-score),[11],-0.165
same,glycan array binding signal (z-score),[12],-0.536
same,glycan array binding signal (z-score),[13],-0.345
same,glycan array binding signal (z-score),[14],-0.392
same,glycan array binding signal (z-score),[15],-0.237
same,glycan array binding signal (z-score),[16],0.112
same,glycan array binding signal (z-score),[17],-0.325
same,glycan array binding signal (z-score),[18],-0.246
same,glycan array binding signal (z-score),[19],-0.389
same,glycan array binding signal (z-score),[20],-0.699
same,glycan array binding signal (z-score),[21],-0.437
same,glycan array binding signal (z-score),[22],0.658
same,glycan array binding signal (z-score),[23],0.293
same,glycan array binding signal (z-score),[24],-0.186
same,glycan array binding signal (z-score),[25],-0.051
same,glycan array binding signal (z-score),[26],-0.55
same,glycan array binding signal (z-score),[27],-0.55
same,glycan array binding signal (z-score),[28],0.361
same,glycan array binding signal (z-score),[29],0.019
same,glycan array binding signal (z-score),[30],-0.639
same,glycan array binding signal (z-score),[31],-0.241
same,glycan array binding signal (z-score),[32],-0.024
same,glycan array binding signal (z-score),[33],-0.041
same,glycan array binding signal (z-score),[34],-0.355
same,glycan array binding signal (z-score),[35],-0.426
same,glycan array binding signal (z-score),[36],0.161
same,glycan array binding signal (z-score),[37],-0.271
same,glycan array binding signal (z-score),[38],-0.692
same,glycan array binding signal (z-score),[39],0.433
same,glycan array binding signal (z-score),[40],-0.45
same,glycan array binding signal (z-score),[41],-0.508
same,glycan array binding signal (z-score),[42],0.209
same,glycan array binding signal (z-score),[43],-0.18
same,glycan array binding signal (z-score),[44],-0.478
same,glycan array binding signal (z-score),[45],-0.251
